73 compounds from PubChem BioAssay AID488969 (Vanderbilt High Throughput Screening Facility, 2010) can be followed below.

The structures appear in SMILES notation. Whole data set: some 110,000 compounds, median “z-score” near -0.1, cut for the highest 2% near 2. The list shows a part of the results. The source made the active and inactive calls.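 How the source made its calls: active means z-score in the third read window above 3 or below -3; inactive means the rest.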

The test concerns the target Metabotropic glutamate receptor 8 (Rattus norvegicus) (UniProt P70579). As to the kind of experiment: rat mGluR8 modulators via GIRK flux, primary screen, cell-based, thallium flux, HTS (AID 488969). To be noted: HEK293 rat mGluR8, GIRK (G protein-gated inwardly rectifying potassium channel) thallium flux, FluoZin2; at 10 µM; stronger effect = higher value; submaximal glutamate (EC20) added with thallium.
Sequence of UniProt P70579 (P70579 whole entry, looked up): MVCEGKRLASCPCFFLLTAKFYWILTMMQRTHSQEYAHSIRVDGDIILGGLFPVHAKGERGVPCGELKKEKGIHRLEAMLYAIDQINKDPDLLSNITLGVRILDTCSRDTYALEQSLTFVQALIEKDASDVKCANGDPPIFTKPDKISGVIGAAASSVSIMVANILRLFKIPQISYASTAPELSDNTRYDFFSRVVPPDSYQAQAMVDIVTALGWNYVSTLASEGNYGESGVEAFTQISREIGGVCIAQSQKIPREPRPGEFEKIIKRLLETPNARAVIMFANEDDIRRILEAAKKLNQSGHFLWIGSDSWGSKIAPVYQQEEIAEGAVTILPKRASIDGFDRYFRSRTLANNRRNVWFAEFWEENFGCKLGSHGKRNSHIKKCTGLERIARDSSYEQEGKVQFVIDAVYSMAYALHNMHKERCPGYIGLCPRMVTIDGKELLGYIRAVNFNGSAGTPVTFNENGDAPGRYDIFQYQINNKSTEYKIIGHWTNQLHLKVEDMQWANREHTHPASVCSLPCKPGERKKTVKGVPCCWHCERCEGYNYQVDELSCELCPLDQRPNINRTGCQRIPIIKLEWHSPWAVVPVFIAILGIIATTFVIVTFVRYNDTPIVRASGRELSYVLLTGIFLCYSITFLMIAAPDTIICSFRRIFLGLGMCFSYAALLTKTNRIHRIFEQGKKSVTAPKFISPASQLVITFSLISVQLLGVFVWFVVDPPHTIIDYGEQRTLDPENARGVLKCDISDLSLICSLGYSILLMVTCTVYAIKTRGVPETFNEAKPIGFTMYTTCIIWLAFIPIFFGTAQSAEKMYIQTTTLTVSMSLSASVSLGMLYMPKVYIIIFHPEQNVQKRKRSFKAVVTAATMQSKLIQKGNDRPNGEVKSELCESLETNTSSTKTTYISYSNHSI
Consider `O=C(/C=C/c1ccc2c(c1)OCO2)NCCSCc1cccc(Cl)c1`, for which the z-score is -0.166. With `NC(=O)c1ncc(C(F)(F)F)cc1Oc1ccc(F)cc1` the figure was -0.256; with `Cc1cccc(OCC(=O)NC(=S)Nc2ccccc2N2CCOCC2)c1`, active: 3.14; with `CCOC(=O)c1cnc(Nc2nc3ccccc3o2)nc1CSC(=S)N1CCCCC1`, 0.0266. As for `CCOC(=O)N1CCN(/C=C(\C#N)c2nc3ccccc3s2)CC1`, the figure is 1.73; as for `CC1CCN(Cc2cnc(Cl)s2)CC1`, 0.0467. With `COc1ccc(-c2cc(C(F)(F)F)nc(SCC(=O)NCc3cccs3)n2)cc1` the figure was -0.253; with `COc1cc2c(cc1OC)C(C(=O)O)C(c1cc(Br)c(O)c(OC)c1)N(C)C2=O` (stereo not drawn), -0.372. The compound `COc1ccc(S(=O)(=O)Oc2ccc3ccccc3c2)cc1` gave a z-score of -0.0921. As for `CCOc1cccc(OCCCOc2cccc3cccnc23)c1`, the figure is 0.0282; as for `O=S(=O)(Nc1ccc(O)c(Sc2nc3ccccc3s2)c1)c1cccc2ccccc12`, -0.254. As for `CCc1nnc(NS(=O)(=O)c2ccc(NS(=O)(=O)c3ccc(NC(C)=O)cc3)cc2)s1`, the figure is -0.14; as for `O=C1CN(C(=O)COc2ccc(Br)cc2F)c2ccccc2N1`, -0.567. With `O=C(/C=C/c1ccccc1Cl)c1cccnc1` the figure was -1.07; with `COc1cc(C(=O)OCCN2CCOCC2)cc(OC)c1OC`, -0.284; with `Cc1cccc(-c2ccc(C=Nc3c(C)n(C)n(-c4ccccc4)c3=O)o2)c1`, -0.313. `CCN(CC)S(=O)(=O)c1cccc(C(=O)NC2CCCCC2)c1`: the z-score is 0.138.

Consider `CCCC(c1nnnn1Cc1ccc(OC)cc1)N1CCN(c2ccccc2OC)CC1` (stereo not drawn), for which the z-score was -0.369.

As to `Cc1c(NC(=O)c2nn(C)c(=O)c3ccccc23)c(=O)n(-c2ccccc2)n1C`, the z-score was -0.208. With `Cc1cccc(NCc2nc3ccccc3n2Cc2ccccc2)c1` the figure was -1.03; with `O=C1OC(OC2CCCCC2)(c2ccccc2)c2ccccc21` (stereo not drawn), 0.227; with `COC(=O)CCCC(=O)Nc1ccc(Cl)c(Cl)c1`, 0.876. With `Cc1cc(C(=O)Nc2c(C)nn(Cc3ccc(F)cc3)c2C)on1` the figure was -0.239; with `CC1CCCC(NC(=O)COC(=O)CN2C(=O)C3CCCCC3C2=O)C1C` (stereo not drawn), 0.0235; with `O=C1NC2(NN1c1ccccc1)C1CC3CC(C1)CC2C3` (stereo not drawn), 1.02. With `COc1ccc(-c2nnc(SCCC(=O)O)n2-c2ccccc2)cc1` the figure was -0.00399; with `C/C(=N\NC(=O)C(C)Oc1ccc([N+](=O)[O-])cc1)c1ccccn1` (stereo not drawn), -0.0172; with `O=c1c2ccccc2nc(-c2ccco2)n1/N=C/c1ccccc1O`, -0.0515. Take `N#CCCNc1ccc(OCCC#N)cc1`: the z-score is 0.0784. As for `CC(C)OP(=O)(OC(C)C)C(Nc1ccccc1)c1cccc2c1OCO2` (stereo not drawn), the figure is -0.329; as for `N#Cc1ccc(-c2ccc3c(c2)OCO3)nc1SCC(=O)OCc1ccccc1`, 1.02. In the case of `CCOc1cc(C)c(C(C)C)cc1S(=O)(=O)N1CCOCC1`, the z-score was -0.135. As for `C=CCNCCCCOc1ccccc1`, the figure is -0.066; as for `Cn1c(C(=O)N2CCc3ccccc3C2)cc2c(=O)n3ccccc3nc21`, -0.835. Regarding `NNC(=O)COc1cccc2cccnc12`, the z-score was -0.0578.

Take `Cc1ccc(S(=O)(=O)N(C)C)cc1NC(=S)NNC(=O)C1CC1`: the z-score is -0.0228. As for `Cc1ccc(-n2nc(C)c3c(C)cc(=O)[nH]c32)cc1`, the figure is -0.176. With `CCOc1ccc(NC(=O)Cn2nnc(C(=O)NCc3ccco3)c2N)cc1` the figure was 0.4; with `CCN1CCN(CCNC(=O)c2ccc(CS(=O)(=O)c3c(Cl)cccc3Cl)o2)CC1`, -0.55; with `Clc1ccc(C2=NNC(=NCc3ccc4c(c3)OCO4)SC2)cc1`, 0.213. The compound `O=C1Nc2ncccc2OC1CCCl` (stereo not drawn) gave a z-score of -0.25. `COc1cccc(NC(=O)CCCn2c(=S)[nH]c3ccccc3c2=O)c1`: the z-score was active: 3.39. As for `CCN(CC)c1ccc(C2Nc3cccc4cccc(c34)N2)c(O)c1`, the figure is 0.865; as for `O=C(O)c1ccc2oc(SCC(=O)N3CCCCC3)nc2c1`, 0.0845; as for `CCc1nnc(NS(=O)(=O)c2ccc(NC(=S)NC(=O)/C=C/c3ccccc3)cc2)s1`, 0.0117. With `CCn1c(CS(=O)Cc2ccc(Cl)cc2Cl)nnc1SCc1c(Cl)cccc1Cl` (stereo not drawn) the figure was -0.193; with `NC(=O)CN1C(=O)C2C3c4ccccc4C(c4ccccc43)C2C1=O` (stereo not drawn), -0.00416; with `CNC(=O)C1CC(=O)N(CCCc2ccccc2)C(=Nc2ccccc2)S1` (stereo not drawn), -0.334. With `O=C(O)C1CC=CCC1C(=O)Nc1ccc(S(=O)(=O)N2CCCc3ccccc32)cc1` (stereo not drawn) the figure was 0.819. Take `Cc1cccc(NC(=S)NCc2cccs2)c1C`: the z-score is -0.209.

Regarding `COc1cccc(CSc2nc3ccccc3[nH]2)c1`, the z-score came out at 2.68. With `COc1ccccc1CNC(=O)C1CCC(CNc2c(N3CCOCC3)c(=O)c2=O)CC1` (stereo not drawn) the figure was 0.611. For `Fc1cccc(Cn2ccc(-c3ccc4c(c3)OCO4)n2)c1`, the z-score was -0.207. With `O=C(CO)N/N=C/c1ccc(Cl)cc1` the figure was -0.305; with `Cc1oc(/C=N/NC(=O)CC2(C)OCCO2)cc1Br`, -0.17. As for `COC(=O)c1ccc(-c2ccco2)n1Cc1cc(C)ccc1C`, the figure is -0.359. With `N#CC1=C(N)N(c2ccccc2)C2=C(C(=O)CCC2)C1c1cccs1` (stereo not drawn) the figure was -2.59; with `CCOC(=O)N1CCC(NC(=O)c2ccc3c(c2)N(Cc2ccccc2)CCS3)CC1`, -1.66.

Turning to `Cc1cccc(C)c1OCc1nnc(SCC(=O)NCc2ccccc2)o1`, the z-score was found to be 0.511.

Regarding `O=C(Oc1ccccc1N1C(=O)C2CC=CCC2C1=O)c1ccc(Br)cc1` (stereo not drawn), the z-score is -0.0274.

With `Cc1nnc(NCCc2ccccc2)[nH]c1=O`, the z-score is -0.988.

`COc1ccc(C)cc1NC(=O)c1cc2c(s1)CCC2` registered a z-score of -0.139. With `COc1ccc(-c2n[nH]c(=S)n2-c2ccc3c(c2)OCCO3)cc1` the figure was -0.504; with `Cc1ccc(Cn2nc(C)c(NC(=O)c3cc(C)no3)c2C)cc1`, 0.245; with `Cn1nc([N+](=O)[O-])nc1Oc1ccccc1`, -0.412. As for `CC(=O)Nc1ccc(Sc2ncccc2C(=O)Nc2ccc(OC(F)(F)F)cc2)cn1`, the figure is -0.328; as for `COc1ccc(C(=O)Nc2nc(N)n(-c3ccccc3)n2)cc1OC`, 0.0645.

`O=C(O)CCc1ccc(-c2ccc(Br)cc2)o1` returned a z-score of 0.0398.

For `COc1cc(NS(=O)(=O)c2ccc(N/C=C(\C#N)c3nc4ccccc4o3)cc2)nc(OC)n1`, the z-score was -0.199. As for `CCC(C)NC(=O)CC(NS(=O)(=O)c1ccc(Cl)cc1)c1ccco1` (stereo not drawn), the figure is 0.491; as for `O=C(Nc1ccccc1)c1cc(Cl)nc2ccccc12`, 0.011. As for `Cc1ccccc1NC(=S)N(CCCN1CCOCC1)Cc1ccccn1`, the figure is -0.341.

In the case of `CN(/N=C/c1ccc2c(c1)OCO2)c1ccccc1`, the z-score is -0.188.
